Measurements reported in PubChem BioAssay AID463173 (ICCB-Longwood Screening Facility, Harvard Medical School, 2010).
Hit rate of the full screen: of about 52,000 compounds, about 1,700 (3.3%) were called active. No stated cut-off is given here; in the data, active means survival mostly below about 52% (no sharp cut-off); inactive means mostly above about 56%. Some of the results follow.

system: Wild type; test: S. aureus survival, RN4220 and DeltatarO strains – OD600, teichoic acid synthesis inhibitors, primary screen (AID 463173); details: S. aureus RN4220 wild type/DeltatarO growth, OD600, 18 h, hits give low values, screened at 18.75 µg/mL (by protocol)

| Compound | survival |
| --- | --- |
| NC(=O)c1ccc(-c2ccccc2)cc1C(N)=O | inactive: 109% |
| Cc1cc(N2CC34C=CC(O3)C(C(=O)O)C4C2=O)no1 (centres undefined) | inactive: 94% |
| CCOC(=O)c1ccc(CN(Cc2ccc(F)cc2)S(=O)(=O)c2ccc(F)c(C(=O)Nc3ccc(Cl)cc3F)c2)cc1 | inactive: 71% |
| CCN(CC)S(=O)(=O)c1ccc(S(=O)(=O)NCc2ccc3c(c2)OCO3)cc1 | inactive: 108% |
| COc1cccc(N2CCN(C(=O)c3cccc(-n4c(C)nc5cccnc54)c3)CC2)c1 | inactive: 74% |
| O=S(=O)(Nc1ccc(Br)cc1F)c1ccc2nc(-c3ccccc3)[nH]c2c1 | inactive: 71% |
| CCOc1ccc(NC(=O)c2c(NCc3cccnc3)sc3c2CCCC3)cc1 | inactive: 146% |
| COc1ccc(Br)c(C(=O)Nc2cc3c(cc2N2CCOCC2)n(C)c(=O)n3C)c1 | inactive: 79% |
| CCCn1c(-c2ccc(F)cc2)cnc1SCC(=O)N1CCCCC1C (centres undefined) | inactive: 112% |
| CCC(C)C(NC(=O)c1cc(C)oc1C)C(=O)O (centres undefined) | inactive: 107% |
| C=Cc1ccc(Cn2c(C(=O)O)c(CNC3CCCCC3)c3ccc(C)cc32)cc1 | inactive: 79% |
| COc1ccc(CCn2c(=O)c3cccnc3n(CC(=O)Nc3ccc(C)c(F)c3)c2=O)cc1OC | inactive: 87% |
| COc1ccc(-c2nnc(SCC(=O)Nc3cccc(C(F)(F)F)c3)nc2-c2ccc(OC)cc2)cc1 | inactive: 79% |
| CC(C)NC(=O)Cn1cnc2c1c(=O)n(C)c(=O)n2C | inactive: 100% |
| CCOC(=O)c1[nH]c2c(c1Cc1ccccc1C)C(=O)CC(c1cc(OC)ccc1OC)C2 (centres undefined) | inactive: 91% |
| CC(C)COc1ccc(C(=O)Nc2cc3nn(-c4ccccc4)nc3cc2Cl)cc1 | inactive: 57% |
| CCc1nn2c(=O)cc(COc3ccc(/C=C(\C#N)C(=O)Nc4ccc(F)cc4)cc3OC)nc2s1 | inactive: 143% |
| CCOc1ccc(OCC)c(NC(=O)C2CCN(S(=O)(=O)c3c(C)noc3/C=C/c3ccccc3F)CC2)c1 | inactive: 99% |
| O=C(COc1ccccc1)NCCc1csc(-c2ccc(Cl)cc2)n1 | inactive: 71% |
| COc1cccc(Cn2c(CNS(=O)(=O)c3ccc(F)c(Cl)c3)nc3cccnc32)c1 | inactive: 159% |
| O=C(c1ccc2c(c1)OCCO2)N(Cc1cccnc1)c1nc2c(Cl)cccc2s1 | inactive: 128% |
| O=S(=O)(NCC(c1cccs1)S(=O)(=O)c1ccccc1)c1ccc(F)cc1 (centres undefined) | inactive: 64% |
| Cc1ccccc1-c1nn2c(=O)cc(CN3CCN(C(=O)/C=C/c4ccccc4)CC3)nc2s1 | inactive: 135% |
| CCc1ccc(NC(=O)Cn2c(=O)n(CCC(=O)N3CCc4ccccc4C3)c(=O)c3ccccc32)cc1 | inactive: 112% |
